This is one part of the list. The list includes weakly bound sequences.

This experiment concerns the target MaxL homodimer (UniProt P61244). In words: universal protein-binding microarray (PBM). As to conditions: PBS-based mixture, 10 nM His-tagged protein dimer, 2% milk, 200 ng/uL BSA, 50 ng/uL salmon testes DNA, 0.02% TX-100; detection with Alexa 488 anti-His …; high values mean tight binding; most listed sequences are background and not binding sites; double strand, one strand shown.
Chain of UniProt P61244 (P61244 whole entry): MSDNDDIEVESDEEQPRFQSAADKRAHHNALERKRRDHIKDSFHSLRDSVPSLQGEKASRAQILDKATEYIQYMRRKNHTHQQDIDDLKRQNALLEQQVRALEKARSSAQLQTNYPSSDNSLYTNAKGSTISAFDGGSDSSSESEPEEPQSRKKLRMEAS
On to AAGGTATG, for which the binding signal (normalized occupancy) was found to be 0.0817.

In the case of AGCAGCCC, the binding signal (normalized occupancy) came out at 0.0713. Consider CGGCTGCA, for which the binding signal (normalized occupancy) stood at 0.0669. Take CGACTAAC: the binding signal (normalized occupancy) was 0.0717. As for ACGATAAC, the binding signal (normalized occupancy) was 0.0811. To ATAGATTG belongs 0.0832. As to AGGCAATC, the binding signal (normalized occupancy) turned out to be 0.0737. Turning to CTCTCTCC, the binding signal (normalized occupancy) stood at 0.0738. As for ATCGAGTG, the binding signal (normalized occupancy) came out at 0.0762. ATCTGCGC: the binding signal (normalized occupancy) turned out to be 0.0755.

Consider CCCAGGAA, for which the binding signal (normalized occupancy) worked out at 0.0732. Turning to AACATTGA, the binding signal (normalized occupancy) came out at 0.0809. To ATACCGGC belongs 0.0765; to AAGAGTAT, 0.0783.

Consider ATTGGTTC, for which the binding signal (normalized occupancy) was 0.0728.

With ATTTTGGA, the binding signal (normalized occupancy) was found to be 0.0799. To AGAAGTAC belongs 0.0753; to AAATCACG, 0.0875; to CCCGACAA, 0.0736. With AAATGCAG, the binding signal (normalized occupancy) turned out to be 0.0778. On to AACCATAC, for which the binding signal (normalized occupancy) came out at 0.0801. To CGACCACA belongs 0.0861; to CGGGCCCA, 0.0639. To ATGATTAC belongs 0.083; to GGAACGAA, 0.0747. Turning to AGAAGCCG, the binding signal (normalized occupancy) was 0.069. With GACTTTAC, the binding signal (normalized occupancy) came to 0.0727.

As to ACGTCGTC, the binding signal (normalized occupancy) was 0.0822. Regarding CTCATCGC, the binding signal (normalized occupancy) came out at 0.0766.

For ATGGGACC, the binding signal (normalized occupancy) is 0.0814. To AAACTAGT belongs 0.0668; to ATTTACAC, 0.0834; to ACAGATAG, 0.0748. On to GAAATCGA, for which the binding signal (normalized occupancy) turned out to be 0.0664. To AGGATTTA belongs 0.076; to AATACAGG, 0.0759. To CGATTATA belongs 0.073.

For the sequence AGCTGCTC, the binding signal (normalized occupancy) is 0.0719.

Take AGTGGTTC: the binding signal (normalized occupancy) came to 0.0721. Consider AACCACGG, for which the binding signal (normalized occupancy) is 0.0843. As to GTACGGAA, the binding signal (normalized occupancy) came to 0.0756. As to ACGCCAAG, the binding signal (normalized occupancy) came to 0.076. On to CCAAAACC, for which the binding signal (normalized occupancy) came to 0.0689. To TCATAAGA belongs 0.0813; to CACACCTA, 0.081. To ACACTACA belongs 0.0746; to AATAGATT, 0.0811; to ACGATGGC, 0.0795.

As for ACTTAACG, the binding signal (normalized occupancy) worked out at 0.0738. For the sequence CGATAAAC, the binding signal (normalized occupancy) is 0.0787. As to AAACTTCG, the binding signal (normalized occupancy) is 0.0694.

For the sequence GCAACCAA, the binding signal (normalized occupancy) stood at 0.0749. To GGTACTCA belongs 0.069; to CCTCGGCA, 0.0675. As to CACAAATG, the binding signal (normalized occupancy) amounted to 0.0765. For CCAGCTGA, the binding signal (normalized occupancy) is 0.0721. To GCCCCCGA belongs 0.0746.

Take AGAAGTCA: the binding signal (normalized occupancy) came to 0.0698. Turning to GGCCCCGA, the binding signal (normalized occupancy) was 0.0707. As to GACGAGAA, the binding signal (normalized occupancy) amounted to 0.0723. As for ATGGTCTA, the binding signal (normalized occupancy) was determined as 0.0796. To CTTTATAA belongs 0.0823; to GAGAGGAA, 0.0739.

CAGGATGA: the binding signal (normalized occupancy) came to 0.0758.

In the case of TATGAATA, the binding signal (normalized occupancy) turned out to be 0.0823. As for CAACATTG, the binding signal (normalized occupancy) came out at 0.0794.

ACTGTTAC: the binding signal (normalized occupancy) worked out at 0.0782.

Take GCCGGAGC: the binding signal (normalized occupancy) is 0.0689. Regarding AAGGAAGC, the binding signal (normalized occupancy) is 0.0755. For GGACGTAA, the binding signal (normalized occupancy) was 0.0748. In the case of GTGCGGGA, the binding signal (normalized occupancy) stood at 0.0785. For CCGGTGCG, the binding signal (normalized occupancy) came to 0.0746. As for ATAGCGAC, the binding signal (normalized occupancy) came to 0.0789. To GGTTTCGA belongs 0.074; to AAGGTGAA, 0.0694. For AGTAGGGG, the binding signal (normalized occupancy) worked out at 0.0805.

As to CTTCCCAA, the binding signal (normalized occupancy) was found to be 0.0759. AGACTAAT: the binding signal (normalized occupancy) was determined as 0.0731. Take GGATTAGA: the binding signal (normalized occupancy) was found to be 0.0774.

AAGATCGC: the binding signal (normalized occupancy) was found to be 0.0764. For the sequence GTCACTGA, the binding signal (normalized occupancy) worked out at 0.0746. Take CCATACGG: the binding signal (normalized occupancy) turned out to be 0.0859. With GAATCGTC, the binding signal (normalized occupancy) is 0.0756.

For ATTGGACG, the binding signal (normalized occupancy) was 0.0732.

Consider AGGCGCGA, for which the binding signal (normalized occupancy) worked out at 0.0694. For the sequence TCACCCAA, the binding signal (normalized occupancy) was determined as 0.0792. With CAGGTTCC, the binding signal (normalized occupancy) was 0.0728. Turning to GCGAGAAC, the binding signal (normalized occupancy) worked out at 0.0695. For the sequence CCGAGCTA, the binding signal (normalized occupancy) stood at 0.0681.

Take CGAAGTCC: the binding signal (normalized occupancy) amounted to 0.0699. With AAGGATGG, the binding signal (normalized occupancy) was 0.0801.

For the sequence ACAGGTCC, the binding signal (normalized occupancy) is 0.0734. Take GAGGATCC: the binding signal (normalized occupancy) was 0.0727. In the case of CAACATTA, the binding signal (normalized occupancy) turned out to be 0.0824. Take ATGCGATG: the binding signal (normalized occupancy) worked out at 0.0811. On to CGGCAGTA, for which the binding signal (normalized occupancy) was 0.0735. To CAACTCAG belongs 0.0733; to ATTGACCC, 0.0793; to CCTCGTAA, 0.0845. To AGCCGCAC belongs 0.0791; to TATTATAA, 0.0865. As to ATTGCATG, the binding signal (normalized occupancy) is 0.0902. To ACTAGAGA belongs 0.0746; to GCGCTTTA, 0.0687; to GGAGCGGA, 0.0697. For the sequence TGGTTTAA, the binding signal (normalized occupancy) amounted to 0.0816.

Consider AATGGAAG, for which the binding signal (normalized occupancy) is 0.074. As to CTGAATCA, the binding signal (normalized occupancy) was determined as 0.0733. For GAGTGGTA, the binding signal (normalized occupancy) worked out at 0.0787. For ACTAGAGG, the binding signal (normalized occupancy) turned out to be 0.0703. ACGAACTA: the binding signal (normalized occupancy) worked out at 0.075. Turning to ACGCCCGT, the binding signal (normalized occupancy) amounted to 0.0759. AACACAGA: the binding signal (normalized occupancy) was 0.0748. Regarding CAATACTC, the binding signal (normalized occupancy) is 0.0819. In the case of GGTACTAC, the binding signal (normalized occupancy) is 0.0761. To CTCGGGGC belongs 0.0751; to CCTCAGCC, 0.0754; to GCCCAACC, 0.0755. Regarding GAAACTCC, the binding signal (normalized occupancy) amounted to 0.0662. To GGGTATGA belongs 0.0848; to AGATAGCC, 0.0724.

CTACCTAC: the binding signal (normalized occupancy) stood at 0.0725. To ATCTTCCA belongs 0.0773. For the sequence GAACGTAA, the binding signal (normalized occupancy) turned out to be 0.0714.

As to ACTAACAG, the binding signal (normalized occupancy) worked out at 0.0759. Consider ACTGGAAC, for which the binding signal (normalized occupancy) stood at 0.0731. To CCACAGAA belongs 0.0794; to CATGCCTC, 0.0935; to ATTTCGTA, 0.076. As to CGAGGAGC, the binding signal (normalized occupancy) came out at 0.0711. For the sequence AAATACTT, the binding signal (normalized occupancy) was 0.0716.

On to CGCGCCTA, for which the binding signal (normalized occupancy) was 0.0755. ACGATCGG: the binding signal (normalized occupancy) turned out to be 0.0744.

As for CGTTCTAA, the binding signal (normalized occupancy) was 0.0715. Take AGACATGG: the binding signal (normalized occupancy) was 0.0832.

Regarding CATAGCCC, the binding signal (normalized occupancy) was 0.08. To CACGCCAG belongs 0.0816. As to ATCCCATC, the binding signal (normalized occupancy) was 0.0796. In the case of GTACGCAA, the binding signal (normalized occupancy) is 0.0786.

For ATCGATCC, the binding signal (normalized occupancy) was determined as 0.0786. In the case of GAGAGCAA, the binding signal (normalized occupancy) is 0.0684. To CCTTATGC belongs 0.0797; to TAACACGA, 0.0776; to GCAAATTA, 0.0724. As to GATCACAA, the binding signal (normalized occupancy) worked out at 0.0773.

CATTTCTA: the binding signal (normalized occupancy) worked out at 0.0751. For the sequence CATAGAAA, the binding signal (normalized occupancy) came out at 0.0789.

For the sequence TCTTGGCA, the binding signal (normalized occupancy) was 0.0751. In the case of AGTCCACC, the binding signal (normalized occupancy) came out at 0.0809.

In the case of AACCGGTA, the binding signal (normalized occupancy) came out at 0.0727.

In the case of ATGAATGC, the binding signal (normalized occupancy) amounted to 0.0821.

Regarding ACACCCGT, the binding signal (normalized occupancy) stood at 0.0789.

For the sequence CGGTTCTC, the binding signal (normalized occupancy) came to 0.0689. To AATGAGGT belongs 0.0823; to TAGCCCAA, 0.0683. For AGATTGAT, the binding signal (normalized occupancy) is 0.0745.

Take CTGGGAGA: the binding signal (normalized occupancy) came to 0.071. To AGAGTTCC belongs 0.0699; to ACTCTTAA, 0.0735. Regarding AGTTAAGC, the binding signal (normalized occupancy) came to 0.076. Regarding AGTCGCCG, the binding signal (normalized occupancy) stood at 0.0648. For the sequence CCGCATAG, the binding signal (normalized occupancy) came out at 0.0734. Turning to AGTATTAA, the binding signal (normalized occupancy) is 0.0823. As to CTGTCATC, the binding signal (normalized occupancy) was determined as 0.0805. On to AACTCCGG, for which the binding signal (normalized occupancy) is 0.0677.

On to ACCGGTTA, for which the binding signal (normalized occupancy) stood at 0.0751. As to TAGTTAAA, the binding signal (normalized occupancy) turned out to be 0.0739. As for CTCCCTTA, the binding signal (normalized occupancy) turned out to be 0.076. With CGCTCGGA, the binding signal (normalized occupancy) is 0.0711. In the case of CATAGAAC, the binding signal (normalized occupancy) is 0.0803. Regarding AACTGCAG, the binding signal (normalized occupancy) was 0.0704. For the sequence ACCCCTTG, the binding signal (normalized occupancy) stood at 0.0761.
